Measurements reported in the supplement of paper PMC12217912.
This is one part of the list. The full chains were built here from the parent and the listed change. Values near 0.05 are background.

B1: TEV protease; numbered along this chain (parent)
chain: MGESLFKGPRDYNPISSSICHLTNESDGHTTSLYGIGFGPFIITNKHLFRRNNGTLVVQSLHGVFKVKDTTTLQQHLVDGRDMIIIRMPKDFPPFPQKLKFREPQREERICLVTTNFQTKSMSSMVSDTSCTFPSGDGIFWKHWIQTKDGQCGSPLVSTRDGFIVGIHSASNFTNTNNYFTSVPKNFMELLTNQEAQQWVSGWRLNADSVLWGGHKVFMVKPEEPFQPVKEATQL

Variants of: B1
Assay: raw area under fraction-flipped curve 0-4 h after induction (AUC4h, not background-subtracted), DNA-recorder readout of cleavage of the substrate (dimensionless); higher = more cleavage of the substrate by the protease variant
Details: temperature: 34 °C; time window: 0-4 h after rhamnose induction
Method: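 In vivo DNA recorder in E. coli TOP10(DE3) ΔrhaA at 34 °C. Each TEVp single-site mutant (parent TEVp 0) is paired with a single-site variant of the 7-mer TEVs (canonical ENLYFQ|S). The substrate sits between flexible linkers in a Bxb1-sfGFP-TEVs-SsrA fusion, so cleavage stabilises Bxb1 and speeds flipping of a recombination array, read by NGS. The value is the raw area under the fraction-flipped curve over 0-4 h after rhamnose induction (AUC4h), with ≥20 reads per time point. It is not background-subtracted; inactive controls average about 0.047.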
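Further: Bxb1 expression induced with 0.2% (w/v) L-rhamnose at OD600 near 0.5, cultures sampled hourly, flipped fraction per protease–substrate barcode pair counted by paired-end Illumina sequencing.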

| Variant | area with substrate DNLYFQS | area with substrate GNLYFQS | area with substrate HNLYFQS | area with substrate INLYFQS | area with substrate QNLYFQS | area with substrate RNLYFQS | area with substrate TNLYFQS | area with substrate WNLYFQS | area with substrate YNLYFQS | area with substrate FNLYFQS | area with substrate LNLYFQS | area with substrate MNLYFQS | area with substrate NNLYFQS | area with substrate PNLYFQS | area with substrate SNLYFQS | area with substrate VNLYFQS | area with substrate KNLYFQS |
| --- | --- | --- | --- | --- | --- | --- | --- | --- | --- | --- | --- | --- | --- | --- | --- | --- | --- |
| I85G | 0.0531 | 0.048 | 0.0489 | 0.0536 | 0.0286 | 0.0533 | 0.016 | 0.0484 | 0.0373 | – | – | – | – | – | – | – | – |
| I43M | 0.0648 | – | 0.0681 | – | – | – | 0.0463 | 0.0591 | 0.0706 | 0.0623 | 0.0596 | 0.0531 | 0.0871 | 0.0618 | 0.07 | 0.0658 | – |
| I42M | 0.0844 | 0.0694 | 0.0632 | 0.0634 | 0.0716 | 0.0604 | – | 0.0395 | 0.0674 | 0.0671 | 0.0605 | 0.0799 | 0.0777 | – | 0.0752 | 0.0786 | – |
| I42P | 0.0472 | – | 0.0436 | 0.0473 | 0.0368 | 0.0447 | 0.0453 | 0.0361 | 0.044 | – | 0.0501 | 0.0337 | – | 0.054 | 0.0386 | 0.02 | 0.0693 |
| I42T | 0.052 | 0.0452 | 0.0474 | 0.0536 | – | 0.0476 | 0.0569 | 0.0614 | 0.0576 | – | 0.0504 | – | 0.048 | – | – | – | 0.0552 |
| I42E | 0.0495 | 0.0453 | 0.0422 | 0.017 | – | – | 0.0186 | 0.047 | 0.0364 | 0.0268 | 0.0491 | 0.0484 | 0.0354 | 0.0391 | – | 0.0385 | 0.0416 |
| L61S | 0.0788 | 0.0521 | – | – | – | – | – | – | – | 0.0519 | – | – | – | 0.0611 | – | – | 0.0804 |
| V57D | 0.0613 | 0.0608 | 0.0688 | 0.0647 | – | – | 0.0614 | 0.0542 | 0.0581 | 0.0442 | 0.0462 | 0.0408 | – | 0.0704 | 0.0661 | – | 0.0605 |
| V57A | 0.0727 | – | 0.0725 | – | – | – | – | 0.0727 | 0.058 | – | 0.0686 | 0.0551 | 0.0622 | 0.0737 | 0.0569 | – | – |
| V57C | 0.08 | 0.0732 | 0.0615 | 0.0631 | 0.0973 | – | 0.0573 | 0.0525 | – | 0.0621 | 0.0672 | – | – | 0.0683 | – | 0.0349 | 0.0748 |
| F41S | 0.0681 | – | 0.0605 | 0.0613 | – | – | 0.0521 | 0.0475 | 0.0379 | 0.0632 | 0.0582 | – | 0.0428 | 0.0525 | 0.0655 | 0.0555 | 0.0534 |
| F41C | 0.0675 | – | – | 0.0699 | – | 0.0586 | 0.0678 | 0.0533 | 0.0619 | – | 0.072 | 0.0741 | 0.0577 | 0.0554 | – | – | 0.0814 |
| F41R | 0.0152 | – | – | 0.0507 | – | 0.0405 | 0.0514 | 0.0498 | 0.0522 | – | 0.0486 | 0.0476 | 0.0628 | – | 0.0657 | 0.0542 | 0.0535 |
| F49E | 0.0593 | 0.052 | 0.0504 | 0.06 | – | 0.0614 | 0.048 | 0.0539 | 0.0379 | 0.0416 | 0.0336 | 0.0661 | 0.075 | 0.0522 | 0.0488 | 0.0513 | 0.0463 |
| G39P | 0.0438 | 0.043 | 0.0463 | 0.0348 | – | 0.0446 | 0.0408 | 0.027 | 0.0383 | 0.0399 | 0.0497 | 0.0288 | 0.0704 | 0.0354 | 0.0394 | 0.0478 | – |
| D82E | 0.0449 | 0.0611 | 0.0718 | – | – | 0.0486 | 0.0728 | 0.0511 | 0.0413 | 0.0603 | 0.0542 | 0.0651 | 0.0597 | 0.0698 | 0.0557 | – | – |
| K46D | 0.0722 | 0.0591 | 0.0533 | – | 0.0491 | – | 0.0618 | 0.0558 | 0.0611 | 0.0408 | 0.0611 | 0.047 | 0.0307 | 0.0717 | 0.0554 | 0.062 | 0.0641 |
| G80F | 0.0881 | – | – | – | 0.0759 | – | 0.0713 | 0.0646 | – | – | – | – | 0.0536 | 0.0783 | – | 0.0667 | – |
| T30A | 0.0953 | 0.0582 | 0.0591 | – | – | 0.0744 | 0.0608 | 0.0617 | 0.063 | – | 0.0651 | 0.0788 | 0.0734 | 0.0697 | 0.0505 | – | 0.073 |
| Q75T | 0.0856 | – | 0.0716 | – | 0.063 | – | 0.0634 | 0.0546 | 0.0646 | 0.0669 | 0.0632 | 0.0619 | – | 0.0661 | – | 0.05 | – |
| Q75H | 0.062 | – | 0.0544 | – | – | – | 0.0694 | 0.0594 | – | 0.0632 | – | – | 0.0382 | 0.051 | 0.0702 | – | – |
| N53E | 0.0915 | – | 0.0488 | 0.0877 | – | 0.0487 | 0.0947 | 0.0597 | – | – | – | – | – | 0.0624 | 0.0655 | 0.0755 | 0.0686 |
| S17Y | 0.0781 | 0.0693 | 0.0611 | 0.0502 | 0.0591 | 0.0834 | 0.06 | 0.0584 | 0.0632 | 0.0661 | 0.0902 | 0.0668 | 0.0598 | 0.0708 | 0.0678 | 0.0646 | 0.0651 |
| K68N | 0.0182 | – | 0.0653 | 0.0617 | 0.0983 | – | – | 0.0593 | 0.0586 | 0.0512 | 0.0613 | – | – | 0.0689 | 0.0037 | – | – |
| K68M | 0.0717 | 0.0559 | 0.0737 | – | – | – | 0.0643 | 0.0584 | 0.0706 | 0.058 | – | – | 0.0597 | 0.0736 | 0.0664 | – | 0.0471 |
| K90Q | 0.0968 | – | 0.0507 | – | – | – | 0.0557 | – | 0.0613 | 0.0762 | – | – | – | 0.0692 | – | 0.0705 | – |
| K90C | 0.0845 | 0.0842 | 0.0876 | 0.0623 | – | 0.0678 | 0.0658 | 0.0718 | 0.0637 | 0.0622 | 0.0689 | – | 0.0697 | 0.0573 | 0.0651 | 0.0578 | – |
| T72Y | 0.0939 | – | – | 0.0604 | – | 0.0792 | 0.0689 | 0.0497 | 0.0568 | – | 0.057 | – | 0.0458 | – | – | – | 0.0775 |
| S60A | 0.0795 | 0.0625 | – | 0.0413 | – | – | 0.0646 | 0.0735 | 0.061 | 0.0767 | 0.0592 | – | 0.0599 | 0.0714 | 0.0602 | – | 0.0903 |
